Data on 1 molecule can be found in the supplement of paper PMC8728848.

Experiment in all cases: glycan array binding signal (z-score within array); higher = stronger binding
Details in all cases: glycan notation: IUPAC condensed, linker removed

Assay [1] addresses Neu5Ac9Ac(a2-3)Gal(b1-4)GlcNAc. An outline of the steps: (§1)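 Glycan array binding is given as a within-array Z-score, which can be read as non-binding when negative. The arrays, 3228 of them, came from the Consortium for Functional Glycomics database and were retained only where the protein sequence was available. Z-scores were averaged across arrays of the same protein sequence at different concentrations or buffers and across linkers.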

Assay [2] addresses Neu5Ac9Ac(a2-6)Gal(b1-4)GlcNAc. An outline of the steps:
as §1

Assay [3] deals with Neu5Gc(a2-3)Gal(b1-3)GlcNAc. The method in brief: as §1
Assay [4] concerns the target Neu5Gc(a2-3)Gal(b1-3)[Fuc(a1-4)]GlcNAc. An outline of the steps:
as §1

The target in the next assay is Neu5Gc(a2-3)Gal(b1-4)Glc. The method in brief:
as §1

For assay [5], the target named is Neu5Gc(a2-3)Gal(b1-4)GlcNAc. An outline of the steps: as §1
The target of assay [6] is Neu5Gc(a2-3)Gal(b1-4)[Fuc(a1-3)]GlcNAc. An outline of the steps: as §1
Assay [7] addresses Neu5Gc(a2-6)Gal(b1-4)GlcNAc. The method in brief:
as §1

For a further assay, the target named is Neu5Gc(a2-6)GalNAc. An outline of the steps: as §1
The target in assay [8] is Neu5Gc(b2-6)Gal(b1-4)GlcNAc. An outline of the steps:
as §1

The list shows a part of the results.

B1: PpFlo3 (Pichia pastoris) (protein)
chain: MGSSHHHHHHSSGLVPRGSHMQESGNGTTSDTAYACDIGATPFDGFNATIYQYQASDDNSIQDPVFMSTGYLQRNQLHSTTGVTNPGFNIFTAGVATTTLYGIPNVNYQNMLLELKGYFRADASGNYGLSLRNIDDSAILFFGRETAFECCNENLIPLDEAPTDYSLFTIKEGEASTNPDSYTYTQYLEAGRYYPVRTFFANIRTRAVFNFTMTLPDGSELTDFQNYIFQFGALNQ
Turning to B1, the “glycan array binding signal (z-score)” value is 1.02 in assay [1]; -0.283 in assay [2]; -0.234 in assay [3]; -0.272 in assay [4]; -0.276 with Neu5Gc(a2-3)Gal(b1-4)Glc; -0.275 in assay [5]. In addition, the “glycan array binding signal (z-score)” value is -0.244 in [6], -0.229 in [7], -0.284 with Neu5Gc(a2-6)GalNAc and -0.24 in [8].
